# Publication PMC9911399, “Two distinct binding modes provide the RNA-binding protein RbFox with extraordinary sequence specificity”
# Where a chain is given by its changes, count along the chain named. The list shows a part of the results.
# B1: CCUUUGC (DNA:RNA)
# RNA: GGGAGACCGGAAUUCAGAUUGUCCCCUUUGCUUAAAUCCCGUCGUAGCCACCA
# DNA 1: CAATCTGAATTCCGGTCTCCC
# DNA 2: TGGTGGCTACGACGGGATT
# B2: GUGGGUC (DNA:RNA)
# RNA: B1 RNA with C25G, C26U, U27G, U28G, U29G, G30U
# DNA 1: CAATCTGAATTCCGGTCTCCC
# DNA 2: TGGTGGCTACGACGGGATT
# B3: UAUGAUU (DNA:RNA)
# RNA: B1 RNA with C25U, C26A, U28G, U29A, G30U, C31U
# DNA 1: CAATCTGAATTCCGGTCTCCC
# DNA 2: TGGTGGCTACGACGGGATT
# B4: GUGUGAA (DNA:RNA)
# RNA: B1 RNA with C25G, C26U, U27G, U29G, G30A, C31A
# DNA 1: CAATCTGAATTCCGGTCTCCC
# DNA 2: TGGTGGCTACGACGGGATT
# B5: UACCUGA (DNA:RNA)
# RNA: B1 RNA with C25U, C26A, U27C, U28C, C31A
# DNA 1: CAATCTGAATTCCGGTCTCCC
# DNA 2: TGGTGGCTACGACGGGATT
# B6: GGCGAUG (DNA:RNA)
# RNA: GGGAGACCGGAAUUCAGAUUGUCCGGCGAUGUUAAAUCCCGUCGUAGCCACCA
# DNA 1: CAATCTGAATTCCGGTCTCCC
# DNA 2: TGGTGGCTACGACGGGATT
# B7: UCUGCGU (DNA:RNA)
# RNA: B1 RNA with C25U, U28G, U29C, C31U
# DNA 1: CAATCTGAATTCCGGTCTCCC
# DNA 2: TGGTGGCTACGACGGGATT
# B8: UCGGAGG (DNA:RNA)
# RNA: B6 RNA with G25U, G26C, C27G, U30G
# DNA 1: CAATCTGAATTCCGGTCTCCC
# DNA 2: TGGTGGCTACGACGGGATT
# B9: ACCACCC (DNA:RNA)
# RNA: B1 RNA with C25A, U27C, U28A, U29C, G30C
# DNA 1: CAATCTGAATTCCGGTCTCCC
# DNA 2: TGGTGGCTACGACGGGATT
# B10: AUCGCUG (DNA:RNA)
# RNA: B6 RNA with G25A, G26U, A29C
# DNA 1: CAATCTGAATTCCGGTCTCCC
# DNA 2: TGGTGGCTACGACGGGATT
# B11: GGCAAAG (DNA:RNA)
# RNA: B6 RNA with G28A, U30A
# DNA 1: CAATCTGAATTCCGGTCTCCC
# DNA 2: TGGTGGCTACGACGGGATT
# B12: AAGCUAU (DNA:RNA)
# RNA: B1 RNA with C25A, C26A, U27G, U28C, G30A, C31U
# DNA 1: CAATCTGAATTCCGGTCTCCC
# DNA 2: TGGTGGCTACGACGGGATT
# B13: AUUUCAG (DNA:RNA)
# RNA: B1 RNA with C25A, C26U, U29C, G30A, C31G
# DNA 1: CAATCTGAATTCCGGTCTCCC
# DNA 2: TGGTGGCTACGACGGGATT
# B14: UCCGCGA (DNA:RNA)
# RNA: B1 RNA with C25U, U27C, U28G, U29C, C31A
# DNA 1: CAATCTGAATTCCGGTCTCCC
# DNA 2: TGGTGGCTACGACGGGATT
# B15: ACUAGCG (DNA:RNA)
# RNA: B1 RNA with C25A, U28A, U29G, G30C, C31G
# DNA 1: CAATCTGAATTCCGGTCTCCC
# DNA 2: TGGTGGCTACGACGGGATT
# B16: UAAGCUC (DNA:RNA)
# RNA: B6 RNA with G25U, G26A, C27A, A29C, G31C
# DNA 1: CAATCTGAATTCCGGTCTCCC
# DNA 2: TGGTGGCTACGACGGGATT
# B17: AUCCGAA (DNA:RNA)
# RNA: B6 RNA with G25A, G26U, G28C, A29G, U30A, G31A
# DNA 1: CAATCTGAATTCCGGTCTCCC
# DNA 2: TGGTGGCTACGACGGGATT
# B18: GGCACUC (DNA:RNA)
# RNA: B6 RNA with G28A, A29C, G31C
# DNA 1: CAATCTGAATTCCGGTCTCCC
# DNA 2: TGGTGGCTACGACGGGATT
# B19: ACAAAAC (DNA:RNA)
# RNA: B1 RNA with C25A, U27A, U28A, U29A, G30A
# DNA 1: CAATCTGAATTCCGGTCTCCC
# DNA 2: TGGTGGCTACGACGGGATT
# B20: AUACACU (DNA:RNA)
# RNA: B6 RNA with G25A, G26U, C27A, G28C, U30C, G31U
# DNA 1: CAATCTGAATTCCGGTCTCCC
# DNA 2: TGGTGGCTACGACGGGATT
# B21: GGAAGAC (DNA:RNA)
# RNA: B6 RNA with C27A, G28A, A29G, U30A, G31C
# DNA 1: CAATCTGAATTCCGGTCTCCC
# DNA 2: TGGTGGCTACGACGGGATT
# B22: UGCAUAC (DNA:RNA)
# RNA: B1 RNA with C25U, C26G, U27C, U28A, G30A
# DNA 1: CAATCTGAATTCCGGTCTCCC
# DNA 2: TGGTGGCTACGACGGGATT
# B23: AACUUUG (DNA:RNA)
# RNA: B6 RNA with G25A, G26A, G28U, A29U
# DNA 1: CAATCTGAATTCCGGTCTCCC
# DNA 2: TGGTGGCTACGACGGGATT
# B24: GUUGGAU (DNA:RNA)
# RNA: B6 RNA with G26U, C27U, A29G, U30A, G31U
# DNA 1: CAATCTGAATTCCGGTCTCCC
# DNA 2: TGGTGGCTACGACGGGATT
# B25: UGACAGA (DNA:RNA)
# RNA: B6 RNA with G25U, C27A, G28C, U30G, G31A
# DNA 1: CAATCTGAATTCCGGTCTCCC
# DNA 2: TGGTGGCTACGACGGGATT
# B26: ACUCGAA (DNA:RNA)
# RNA: B1 RNA with C25A, U28C, U29G, G30A, C31A
# DNA 1: CAATCTGAATTCCGGTCTCCC
# DNA 2: TGGTGGCTACGACGGGATT
# B27: UUAGUUA (DNA:RNA)
# RNA: B6 RNA with G25U, G26U, C27A, A29U, G31A
# DNA 1: CAATCTGAATTCCGGTCTCCC
# DNA 2: TGGTGGCTACGACGGGATT
# B28: UUUAGAG (DNA:RNA)
# RNA: B1 RNA with C25U, C26U, U28A, U29G, G30A, C31G
# DNA 1: CAATCTGAATTCCGGTCTCCC
# DNA 2: TGGTGGCTACGACGGGATT
# B29: AGGUUGG (DNA:RNA)
# RNA: B1 RNA with C25A, C26G, U27G, C31G
# DNA 1: CAATCTGAATTCCGGTCTCCC
# DNA 2: TGGTGGCTACGACGGGATT
# B30: ACUAAAC (DNA:RNA)
# RNA: B1 RNA with C25A, U28A, U29A, G30A
# DNA 1: CAATCTGAATTCCGGTCTCCC
# DNA 2: TGGTGGCTACGACGGGATT
# B31: GGCUACC (DNA:RNA)
# RNA: B6 RNA with G28U, U30C, G31C
# DNA 1: CAATCTGAATTCCGGTCTCCC
# DNA 2: TGGTGGCTACGACGGGATT
# Molecular target: T1, RBFOX1 RRM (Homo sapiens, UniProt Q9NWB1 109-208)
# T1 sequence: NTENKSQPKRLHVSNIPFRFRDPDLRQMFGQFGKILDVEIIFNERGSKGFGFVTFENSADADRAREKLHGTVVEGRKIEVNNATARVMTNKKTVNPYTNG
# Experiment: EMSA; HiTS-Eq, 1 nM pool, 10 min; buffer printed only for the single-RNA assays: 10 mM Tris pH 7.5, 150 mM NaCl, 3.4 mM EDTA, 0.001% NP-40, 30 C
# Conditions: tags: His6 N-terminal (pET28a); label: 5' 32P
# Method in brief: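 Relative association constants, normalised to the cognate motif, were derived by comparing read counts of each RNA species with those of the control reaction. The RNA sequenced was the free fraction, separated by 8% native PAGE after a 10 min equilibration in 50 µL of 1 nM 5′-radiolabelled RNA (7 randomized nucleotides) with increasing concentrations of purified wild-type or mutant RbFox RRM.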
row,Binder,binding signal
1,B1,0.0102 KA relative to UGCAUGU
2,B2,0.0192 KA relative to UGCAUGU
3,B3,0.0125 KA relative to UGCAUGU
4,B4,0.00704 KA relative to UGCAUGU
5,B5,0.00881 KA relative to UGCAUGU
6,B6,0.0266 KA relative to UGCAUGU
7,B7,0.0172 KA relative to UGCAUGU
8,B8,0.00791 KA relative to UGCAUGU
9,B9,0.00173 KA relative to UGCAUGU
10,B10,0.0101 KA relative to UGCAUGU
11,B11,0.00447 KA relative to UGCAUGU
12,B12,0.00447 KA relative to UGCAUGU
13,B13,0.00978 KA relative to UGCAUGU
14,B14,0.0124 KA relative to UGCAUGU
15,B15,0.00565 KA relative to UGCAUGU
16,B16,0.0122 KA relative to UGCAUGU

row,Binder,binding signal
1,B17,0.00534 KA relative to UGCAUGU
2,B18,0.0152 KA relative to UGCAUGU
3,B19,0.00148 KA relative to UGCAUGU
4,B20,0.000753 KA relative to UGCAUGU
5,B21,0.0164 KA relative to UGCAUGU
6,B22,0.0146 KA relative to UGCAUGU
7,B23,0.0106 KA relative to UGCAUGU
8,B24,0.0105 KA relative to UGCAUGU
9,B25,0.0182 KA relative to UGCAUGU
10,B26,0.00562 KA relative to UGCAUGU
11,B27,0.00891 KA relative to UGCAUGU
12,B28,0.0156 KA relative to UGCAUGU
13,B29,0.0166 KA relative to UGCAUGU
14,B30,0.00318 KA relative to UGCAUGU
15,B31,0.0071 KA relative to UGCAUGU
